The data scatter; read single values as rough.
B1: Ydj1; a variant is named by its letters at X, in order (parent)
chain: MVKETKFYDILGVPVTATDVEIKKAYRKCALKYHPDKNPSEEAAEKFKEASAAYEILSDPEKRDIYDQFGEDGLSGAGGAGGFPGGGFGFGDDIFSQFFGAGGAQRPRGPQRGKDIKHEISASLEELYKGRTAKLALNKQILCKECEGRGGKKGAVKKCTSCNGQGIKFVTRQMGPMIQRFQTECDVCHGTGDIIDPKDRCKSCNGKKVENERKILEVHVEPGMKDGQRIVFKGEADQAPDVIPGDVVFIVSERPHKSFKRDGDDLVYEAEIDLLTAIAGGEFALEHVSGDWLKVGIVPGEVIAPGMRKVIEGKGMPIPKYGGYGNLIIKFTIKFPENHFTSEENLKKLEEILPPRIVPAIPKKATVDECVLADFDPAKYNRTRASRGGANYDSDEEEQGGEGVQCXXX

Variants of: B1
Assay: enrichment factor, frequency at 37 °C / frequency at 25 °C (thermotolerance selection) (ratio); higher = more growth at 37 °C, higher likelihood of farnesylation
Settings: with Saccharomyces cerevisiae ydj1Δ (yWS304); selective temperature 37 °C; reference temperature 25 °C

Variant	enrichment factor
QQI	2.21
RQI	1.36
SQI	1.63
TQI	1.57
CQI	0.405
VQI	2.9
WQI	1.58
YQI	1.48
DQK	0.149
EQK	0.165
FQK	0.227
GQK	0.121
HQK	0.132
AQK	0.627
IQK	1.19
KQK	0.298
LQK	0.561
MQK	0.126
NQK	0.233
PQK	0.149
QQK	0.155
RQK	0.38
SQK	0.188
TQK	0.207

Variant	enrichment factor
CQK	0.566
VQK	1.04
WQK	0.204
YQK	0.155
DQL	0.134
EQL	1.14
FQL	0.914
GQL	0.546
HQL	1.88
AQL	1.94
IQL	2.84
KQL	1.34
LQL	1.64
MQL	1.58
NQL	1.5
PQL	1.73
QQL	1.91
RQL	1.47
SQL	1.72
TQL	1.73
CQL	1.25
VQL	2.33
WQL	1.82
YQL	1.52

Variant	enrichment factor
DQM	1.78
EQM	1.87
FQM	1.74
GQM	1.17
HQM	1.49
AQM	1.73
IQM	1.81
KQM	1.87
LQM	1.73
MQM	2.4
NQM	1.45
PQM	1.44
QQM	2.75
RQM	1.86
SQM	1.41
TQM	2.2
CQM	1.11
VQM	1.95
WQM	2.22
YQM	2.56
DQN	0.29
EQN	1.18
FQN	1.68
GQN	1.49

Variant	enrichment factor
HQN	1.64
AQN	1.49
IQN	1.34
KQN	1.85
LQN	1.35
MQN	1.48
NQN	1.57
PQN	1.5
QQN	1.79
RQN	1.6
SQN	1.8
TQN	1.69
CQN	1.69
VQN	1.27
WQN	1.77
YQN	2.19
DQP	0.179
EQP	0.121
FQP	1.57
GQP	0.134
HQP	1.24
AQP	0.0937
IQP	0.11
KQP	0.174

Variant	enrichment factor
LQP	0.143
MQP	0.137
NQP	0.183
PQP	0.171
QQP	0.147
RQP	0.153
SQP	0.163
TQP	0.161
CQP	0.814
VQP	0.134
WQP	1.62
YQP	0.406
DQQ	1.71
EQQ	1.6
FQQ	2.48
GQQ	1.53
HQQ	1.72
AQQ	1.51
IQQ	1.41
KQQ	1.63
LQQ	1.53
MQQ	1.6
NQQ	1.71
PQQ	1.68

Variant	enrichment factor
QQQ	1.83
RQQ	1.57
SQQ	1.49
TQQ	1.54
CQQ	1.52
VQQ	1.87
WQQ	2.18
YQQ	2.55
DQR	0.163
EQR	0.161
FQR	0.105
GQR	0.139
HQR	0.141
AQR	0.245
IQR	0.132
KQR	0.162
LQR	0.255
MQR	0.127
NQR	0.162
PQR	0.12
QQR	0.189
RQR	0.162
SQR	0.13
TQR	0.182

Variant	enrichment factor
CQR	0.165
VQR	0.135
WQR	0.183
YQR	0.136
DQS	1.14
EQS	1.71
FQS	1.77
GQS	1.71
HQS	2.09
AQS	2.07
IQS	1.46
KQS	2.12
LQS	1.69
MQS	1.7
NQS	2.01
PQS	2.01
QQS	1.66
RQS	1.9
SQS	1.95
TQS	2.01
CQS	2.22
VQS	1.69
WQS	1.97
YQS	2.18

Variant	enrichment factor
DQT	0.352
EQT	1.25
FQT	1.93
GQT	1.73
HQT	2.08
AQT	1.73
IQT	2.12
KQT	1.91
LQT	1.55
MQT	1.88
NQT	1.98
PQT	1.93
QQT	1.57
RQT	1.85
SQT	1.78
TQT	1.83
CQT	1.32
VQT	1.73
WQT	1.89
YQT	2.46
DQV	0.57
EQV	1.44
FQV	1.91
GQV	1.64

Variant	enrichment factor
HQV	2.48
AQV	1.6
IQV	2.45
KQV	1.52
LQV	1.68
MQV	1.93
NQV	1.73
PQV	1.56
QQV	2.14
RQV	1.92
SQV	1.65
TQV	2.08
CQV	0.662
VQV	2.93
WQV	1.92
YQV	3.85
DQW	0.175
EQW	1.39
FQW	0.956
GQW	0.454
HQW	1.35
AQW	1.54
IQW	1.1
KQW	1.57

Variant	enrichment factor
LQW	1.24
MQW	1.32
NQW	1.28
PQW	1.65
QQW	1.96
RQW	1.67
SQW	1.5
TQW	1.63
CQW	0.293
VQW	1.66
WQW	1.74
YQW	1.27
DQY	0.249
EQY	1.57
FQY	1.21
GQY	1.14
HQY	2.67
AQY	2.06
IQY	1.55
KQY	1.64
LQY	1.48
MQY	1.91
NQY	2.02
PQY	1.67

Variant	enrichment factor
QQY	1.95
RQY	1.77
SQY	2.79
TQY	1.95
CQY	1.68
VQY	2.59
WQY	1.59
YQY	1.48
DRA	0.216
ERA	0.0719
FRA	1.08
GRA	0.146
HRA	0.223
ARA	0.111
IRA	0.129
KRA	0.072
LRA	0.212
MRA	0.128
NRA	0.0799
PRA	0.108
QRA	0.14
RRA	0.204
SRA	0.205
TRA	0.0932

Variant	enrichment factor
CRA	0.118
VRA	0.128
WRA	1.59
YRA	0.177
DRC	0.121
ERC	0.159
FRC	0.279
GRC	0.0991
HRC	0.562
ARC	0.127
IRC	0.0965
KRC	0.167
LRC	0.0895
MRC	0.159
NRC	0.22
PRC	0.192
QRC	0.129
RRC	0.136
SRC	0.148
TRC	0.121
CRC	0.182
VRC	0.162
WRC	0.116
YRC	0.508

Variant	enrichment factor
DRD	0.16
ERD	0.0633
FRD	0.274
GRD	0.126
HRD	0.112
ARD	0.159
IRD	0.102
KRD	0.176
LRD	0.154
MRD	0.17
NRD	0.171
PRD	0.167
QRD	0.142
RRD	0.111
SRD	0.119
TRD	0.174
CRD	0.156
VRD	0.129
WRD	0.72
YRD	0.264
DRE	0.162
ERE	0.163
FRE	0.182
GRE	0.118

Variant	enrichment factor
HRE	0.126
ARE	0.138
IRE	0.137
KRE	0.207
LRE	0.115
MRE	0.0956
NRE	0.261
PRE	0.146
QRE	0.14
RRE	0.153
SRE	0.187
TRE	0.0876
CRE	0.184
VRE	0.085
WRE	1.25
YRE	0.148
DRF	0.204
ERF	0.196
FRF	1.07
GRF	0.335
HRF	0.26
ARF	0.899

From the supplement of paper PMC10320760
